This assay has as its system NCI-H322M lung. Description: NCI-60 cell line screen, 48 h.

Molecules are shown by their SMILES. “And” between values parts separate entries of the source, which are not always exact repeats. Equal entries are not always repeated.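 Cells were grown in 96-well plates and exposed to each compound for 48 hours at five concentrations; endpoints were interpolated linearly between bracketing concentrations, or set to the highest concentration if not reached. At the GI50, growth is halved. TGI: total growth inhibition.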 Square brackets hold non-standard residues; d marks the D form. Peptide text beside a SMILES is read from it. * marks the point of attachment. ξ: configuration not given here. X34 = O=C(OCc1ccccc1)[C@@H]1CCC[C@H]1N*; Fmoc = O=C(OCC1c2ccccc2-c2ccccc21)*; ξW = NC(Cc1c[nH]c2ccccc12)C(=O)O; ξF = NC(Cc1ccccc1)C(=O)O; Boc = CC(C)(C)OC(=O)*; ξK = NCCCCC(N)C(=O)O; ξT = CC(O)C(N)C(=O)O; tBu = CC(C)(C)*

Take `O=[N+]([O-])c1ccc2[nH]cc(-c3c4ccccc4cc4[nH]c5ccc([N+](=O)[O-])cc5c34)c2c1`: the GI50 was 1.84 µM and the TGI amounted to 3.98 µM. For `COc1ccc(/C=C(/C(=O)N2CCNCC2)c2cc(OC)c(OC)c(OC)c2)cc1O` the same measures were 7.48 µM and over 100 µM. `O=C1c2cccc3cccc(c23)C(=O)N1CCCCOc1ccc(-c2nc3ccc(N4CCOCC4)cc3[nH]2)cc1`: the GI50 is 2.2 µM.

As to `NC(=O)c1cc2ccccc2c(N=Nc2ccccc2)c1O`, the TGI was over 100 µM. Take `Nc1nc(Cl)nc2c1ncn2C1O[C@H](CO)[C@@H](O)[C@@H]1F` (stereo partly specified): the GI50 is 1.2 µM and the TGI was over 100 µM.

`CCOC(=O)c1c(OCC)[nH]c(=O)c(C(c2ccc(F)cc2)c2c(O)c(C(=O)OCC)c(OCC)[nH]c2=O)c1O` came in with a TGI of 60.8 µM. Compound `C[Si](C)(C)C#C[I+]c1ccccc1` registered a TGI of over 100 µM. In turn, `CC(=O)OC1COC(N2C(=O)C(=O)c3cc(Br)c([N+](=O)[O-])cc32)C(OC(C)=O)C1OC(C)=O` (stereo unspecified) gave a TGI of over 100 µM. Regarding `COC(=O)c1oc2c(C(=O)/C=C/c3ccc(OC)cc3)c(OCCCN3CCCCC3)ccc2c1C`, the GI50 was 2.24 µM and the TGI came to 7.32 µM. As to `O=C(/C=C/c1ccccc1F)C(c1ccccc1)c1ccccc1`, the TGI was determined as 18.2 µM. For the compound `CCCCCOP(=O)(OCCCCC)C(NC(C)=O)(C(=O)OCC)C(F)(F)F` (stereo unspecified), the TGI is over 100 µM. On to `O=C(/C=C1\N=C(c2ccccc2)N(c2ccc3c(c2)Sc2cc(N4C(=O)/C(=C/C(=O)/C=C/c5ccccc5)N=C4c4ccccc4)ccc2N3)C1=O)/C=C/c1ccccc1`, for which the TGI turned out to be 43.2 µM. `COC(=O)CP1(=O)OC2C(C3CCC2(C)C3(C)C)N1c1cc(C(F)(F)F)cc(C(F)(F)F)c1` (stereo unspecified) showed a TGI of over 100 µM. As to `O=C1NC(=NCCc2ccccc2Cl)S/C1=C\c1ccc2ncccc2c1`, the GI50 was 5.06 µM and the TGI is over 22 µM. Take `Cn1c(=O)c(F)c(Nc2ccc(I)cc2F)c2c(=O)n(C[C@@H](O)CO)cnc21`: the GI50 is 0.0163 µM and 0.0245 µM; the TGI is over 100 µM.

Regarding `Cc1ccc(Nc2ncnc3sc(SCc4ccccc4)nc23)cc1`, the TGI was over 100 µM. On the same count and under the same terms, for `CC(C)=NN/C(=N\S(=O)(=O)c1cc(Cl)c(Oc2ccc([N+](=O)[O-])cc2Cl)c(Cl)c1)Nc1ccc(Cl)cc1` the value was over 100 µM; for `N#CC(C(=O)c1ccccc1F)c1nc2cc(C(F)(F)F)ccc2s1` (stereo unspecified), 82.9 µM; for `O=C(O)/C(Cl)=C(/Cl)C(=O)Nc1cccc(Cl)c1`, over 94.6 µM. For the compound `O=C(OCCOCCOC(=O)c1c[nH]cc1-c1ccccc1)c1c[nH]cc1-c1ccccc1`, the TGI amounted to 75.5 µM. Take `N#C/C(=C/N1CCN(C(=O)c2ccco2)C1=S)C(N)=O`: the GI50 is 17.6 µM and the TGI is 75.1 µM. For the compound `COc1ccccc1Nc1nc(-c2cc3cccc(C(F)(F)F)c3oc2=O)cs1`, the GI50 is 0.955 µM and the TGI was over 100 µM.

With `Cc1ccccc1NC(=O)NC(CC(N)=O)c1ccc2c(c1)nc(-c1cccc(Oc3ccc(C(C)(C)C)cc3)c1)n2CCCN1CCCCC1C` (stereo unspecified), the GI50 was 5.55 µM and the TGI came to 11.9 µM. In turn, `CC(C)(C)[C@@H]1NC(=O)CN1C(=O)OCc1ccccc1` came in with a TGI of over 100 µM. Still for that read-out and setting: as for `CCCCOC(=O)N[C@H]1CCc2cc(OC)c(OC)c(OC)c2-c2ccc(SC)c(=O)cc21`, the figure is 15.4 µM.

Take `CC(CN(CP(=O)([O-])[O-])CP(=O)([O-])[O-])N(CP(=O)([O-])[O-])CP(=O)([O-])[O-].N[C@@H]1CCCC[C@@H]1N.[Pt+2]` (stereo unspecified): the GI50 was over 100 µM and the TGI is over 100 µM. For the compound `CCCCCCCCCCCCCC(=O)OCC1OC(OC)C(NC(=O)N(CCCl)N=O)C(O)C1O` (stereo unspecified), the TGI came out at 39.8 µM. In the case of `Cc1nn(-c2ccccc2)c(C)c1/C=N/NC(=O)c1sc(=S)n(-c2ccc(Cl)cc2)c1N`, the TGI was over 100 µM.

The compound `CC(C)(C)c1ccccc1NS(=O)(=O)c1ccccc1` returned a TGI of over 100 µM.

`Cc1[nH]n(C(=O)c2ccccc2O)c(=O)c1/C=C1\C(=O)C=Cc2ccccc21` had a TGI of over 73 µM.

Consider `CCOC(=O)c1ccc(N=C/C=C(\Nc2ccc(C(=O)OCC)cc2)c2ccc3ccccc3c2)cc1`, for which the TGI is 79.4 µM. Take `CC1=C(C)C(=O)C(C(C)C2=C(C)C(=O)C(C)=C(C)C2=O)=C(C)C1=O`: the GI50 was over 100 µM and the TGI was over 100 µM. Consider `COc1cccc2c1C(=O)c1c(O)c3c(c(O)c1C2=O)C[C@@](O)(C(C)=O)C[C@@H]3OC1CC(N)C(O)C(C)O1` (stereo partly specified), for which the GI50 was 0.0968 µM. Compound `CC(C)(C)c1cc(C(O)(C(F)(F)F)C(F)(F)F)c2c(c1)C(C(F)(F)F)(C(F)(F)F)OC(c1ccccc1)(C(C)(C)C)N2` (stereo unspecified) displayed a TGI of 40.2 µM.

For the compound `CC(=O)OC1CC2(O)C(CCC3(C)C(c4ccc(=O)oc4)CCC32O)C2(C)CCC(O)C=C12` (stereo unspecified), the GI50 is 0.0808 µM; the TGI is 0.122 µM and 0.106 µM. With `OC(Cn1cncn1)(Cn1cncn1)c1ccc(Cl)cc1Cl`, the TGI was over 100 µM.

In the case of `O=c1[nH]c2ccc(CC(=S)N3CCN(c4ccccc4)CC3)cc2s1`, the TGI was over 100 µM. On to `COc1ccc(NS(=O)C2CCCCC2)cc1` (stereo unspecified), for which the TGI was over 100 µM.

`C=C1C(=O)O[C@H]2C1C[C@@H](O)[C@@]1(C)OC1CC[C@@]1(C)O[C@H]21` (stereo partly specified) came in with a TGI of 79.1 µM. Same read-out and setting: as for `CC1CCN(c2nnc(Cl)cc2C(=O)c2ccccc2)CC1`, the figure is over 100 µM.

Regarding `COc1ccc(Cc2ccccc2C(=O)O)c2ccccc12`, the TGI was over 100 µM. Regarding `CC(=O)OCC1OC(n2c(-c3ccccc3)c(N=Nc3ccc(Cl)cc3)c(C)c(C#N)c2=S)C(OC(C)=O)C(OC(C)=O)C1OC(C)=O` (stereo unspecified), the GI50 is 31.3 µM and > 100 µM; the TGI is over 100 µM. In the case of `COc1cc(/C=C\c2ccc(SC)cc2)cc(OC)c1OC`, the TGI was over 100 µM.

For the compound `C=C1C(=O)O[C@H]2[C@H]1CC/C(COC(=O)CCC(=O)OC/C1=C/CC[C@@]3(C)O[C@H]3[C@H]3OC(=O)C(=C)[C@@H]3CC1)=C\CC[C@@]1(C)O[C@@H]21`, the GI50 is 12.3 µM and the TGI amounted to 24.7 µM.

The compound `S=C1c2cc(Cl)ccc2NC(=NC2CCCC2)C2CSCN12` (stereo unspecified) came in with a TGI of over 100 µM.

As to `O=C(CCN1CCCC1)Nc1ccc2c(NCCCCc3ccccc3)c3ccccc3nc2c1`, the GI50 is 1.15 µM and the TGI was 2.36 µM. Compound `N#Cc1nn(-c2ccc(Cl)cc2)c(N)c2c(=N)n3nc(-c4ccccc4)cc3nc12` registered a TGI of over 100 µM.

Turning to `C#CCNC(Cc1ccccc1)C(=O)O` (stereo unspecified), the TGI was over 100 µM.

The compound `CC(OC(C)(C)C)C(NC(=O)C(CCCCNC(=O)OC(C)(C)C)NC(=O)C(Cc1c[nH]c2ccccc12)NC(=O)C(Cc1ccccc1)NC(=O)OCC1c2ccccc2-c2ccccc21)C(=O)NC(Cc1ccccc1)C(=O)N[C@@H]1CCC[C@H]1C(=O)OCc1ccccc1` (stereo partly specified) (Fmoc-[ξF][ξW][ξK](Boc)[ξT](tBu)[ξF]-X34) came in with a TGI of over 100 µM. Take `CC1=C(C(=O)Nc2ccc(F)c(Cl)c2)C(c2cccc(Cl)c2)NC(=O)N1` (stereo unspecified): the GI50 is 11.7 µM and the TGI was 35.6 µM. In turn, `O=S1(=O)CSc2ccc3ccccc3c2-c2c1ccc1ccccc21` displayed a TGI of over 100 µM. Consider `CCOC(=O)c1c(NC(=S)NCc2ccccc2)sc2c1CCN(C)C2`, for which the TGI is over 100 µM. On the same count and under the same terms, as for `COC(=O)/C(C#N)=C1\N=NNN1CCCc1ccccc1`, the figure is over 100 µM. Take `N#Cc1ccc(Nc2nc3nc[nH]c3c(=O)[nH]2)cc1`: the TGI was over 100 µM. Consider `CN(C)CCn1cc(-c2ccc3c(Nc4ccc(CC(=O)Nc5cccc(F)c5)cc4)ncnc3c2)cn1`, for which the GI50 was over 10 µM and the TGI was over 10 µM. `Cc1cc(Cl)ccc1NC(=O)C1C(=O)N(c2ccc(Cl)cc2C)C(=O)/C1=N\N` (stereo unspecified) yielded a TGI of over 100 µM. Still for that read-out and setting: for `Fc1ccc(C(=NCc2ccccc2)N2CCOCC2)cc1` the value was over 100 µM; for `C[Si](C)(C)/C(Br)=C\CCN1C(=O)CCC1O` (stereo unspecified), over 100 µM.

As to `CSC(=S)N/N=C(\C)c1ccccn1`, the GI50 was 0.133 µM and the TGI is 14.1 µM. Compound `CCC1OC2C(CC=C(C)C)=C3OC(C)(O)C(C)(CC)C(O)C3=C3OC(=O)C=C1C32` (stereo unspecified) had a TGI of over 100 µM. Still for that read-out and setting: for `COc1ccc(OC)c2c1C[C@@H]1C(C#N)N3[C@H](Cc4c(OC)ccc(OC)c4[C@@H]3C)C(=O)N1[C@H]2C` (stereo partly specified) the value was over 100 µM. For the compound `CC1SC(c2cccs2)N(NC(=O)C(O)c2ccccc2)C1=O` (stereo unspecified), the GI50 was over 100 µM and the TGI is over 100 µM. `COc1ccccc1NC(=O)C1=C(C)NC(C)=C(C(=O)Nc2ccccc2OC)C1c1ccc(C(C)C)cc1` had a TGI of over 100 µM.

`Nc1nc(Cl)cc(NCC2(CO)CC(CCCCc3ccccc3)C2)n1` (stereo unspecified): the TGI is over 100 µM. The compound `CCC1=C(C)C2=NC1=CC1=NC(=C(CC)/C1=C/O)C=C1N=C3C(=C1C)C(=O)C(C(=O)OC)C3=C1NC(=C2)C(C)C1CCC(=O)OC` (stereo unspecified) yielded a TGI of over 100 µM. For the compound `CC(C)[C@]12O[C@H]1[C@@H]1O[C@]13[C@]1(O[C@H]1C[C@H]1c4c(C(=O)c5ccccc5)oc(OC(=O)c5ccccc5)c4CC[C@@]13C)[C@@H]2O`, the GI50 was 0.0312 µM and the TGI was determined as 4.61 µM.

As to `CC(=O)OCc1ccc(-c2nc(C#N)c(N)o2)o1`, the TGI was over 10 µM. As for `CN1CCN(c2ccc3nc(-c4ccc(OCCCN5C(=O)c6cccc7cccc(c67)C5=O)cc4)[nH]c3c2)CC1`, the GI50 was 16.4 µM and the TGI is 62.5 µM.

As for `N#Cc1c2ccccc2c2nnc3cc(Cl)c(Cl)cc3n12`, the GI50 is 87.1 µM and the TGI is over 100 µM. For the compound `O=c1c2ccccc2nc(-c2ccc(Cl)cc2)n1O`, the TGI is over 100 µM. Compound `CCOC(=O)c1cc(-c2ccc(OC)c(OC)c2)cn1C` gave a TGI of over 10 µM. Turning to `CCOC(=O)C(=Cc1ccccc1Br)C(=O)OCC`, the TGI worked out at 6.98 µM.

Consider `CC(C)(C)c1cc(C2COC(=O)COCCOCC(=O)OCCOCCO2)cc(C(C)(C)C)c1O` (stereo unspecified), for which the TGI came to 63 µM. With `COC(=O)c1ccc(/C=C/C2=CC(=O)C=CC2=O)cc1`, the TGI was over 100 µM. Take `CCOc1ccc2c(c1)/C(=C\C=C\C1CC(C)C3CC(OCC)CCC3N1CC)CC(C)N2CC` (stereo unspecified): the GI50 is 1.52 µM and the TGI is 3.53 µM. Turning to `C(=N\NC1=NCCCN1)/c1ccc(-c2cn3cc(/C=N/NC4=NCCCN4)ccc3n2)cc1`, the TGI is over 100 µM.

`c1ccc(COc2nc3ccc(C45CC6CC(CC(C6)C4)C5)cc3[nH]2)cc1` yielded a TGI of over 100 µM. The same measure, in the same setting: as for `CC(C)C[C@H](NC(=O)[C@@H](Cc1cccc2ccccc12)NC(=O)N1CCOCC1)B(O)O`, the figure is 43.4 µM.

The record behind these values is PubChem BioAssay (NCI).
